# From publication PMC6919601, “Identification of Plasmodium dipeptidyl aminopeptidase allosteric inhibitors by high throughput screening” (PLoS ONE, 2019)
# Screen size: about 110,000 compounds; about 230 (0.21%) showed an effect of 50% or more. The list shows a part of the results.
# Target: DPAP1 (Plasmodium falciparum, UniProt Q8IIJ9)
# Experiment: primary screen, percent inhibition; read by cleavage of a fluorogenic dipeptide substrate; higher = more effect of the substance
# Design: species or system P. falciparum D10 trophozoite lysates; single well
# 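Further: 30 min substrate incubation versus DMSO and 10 µM JCP410 controls.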
# Sequence of DPAP1 (Q8IIJ9 whole entry, looked up): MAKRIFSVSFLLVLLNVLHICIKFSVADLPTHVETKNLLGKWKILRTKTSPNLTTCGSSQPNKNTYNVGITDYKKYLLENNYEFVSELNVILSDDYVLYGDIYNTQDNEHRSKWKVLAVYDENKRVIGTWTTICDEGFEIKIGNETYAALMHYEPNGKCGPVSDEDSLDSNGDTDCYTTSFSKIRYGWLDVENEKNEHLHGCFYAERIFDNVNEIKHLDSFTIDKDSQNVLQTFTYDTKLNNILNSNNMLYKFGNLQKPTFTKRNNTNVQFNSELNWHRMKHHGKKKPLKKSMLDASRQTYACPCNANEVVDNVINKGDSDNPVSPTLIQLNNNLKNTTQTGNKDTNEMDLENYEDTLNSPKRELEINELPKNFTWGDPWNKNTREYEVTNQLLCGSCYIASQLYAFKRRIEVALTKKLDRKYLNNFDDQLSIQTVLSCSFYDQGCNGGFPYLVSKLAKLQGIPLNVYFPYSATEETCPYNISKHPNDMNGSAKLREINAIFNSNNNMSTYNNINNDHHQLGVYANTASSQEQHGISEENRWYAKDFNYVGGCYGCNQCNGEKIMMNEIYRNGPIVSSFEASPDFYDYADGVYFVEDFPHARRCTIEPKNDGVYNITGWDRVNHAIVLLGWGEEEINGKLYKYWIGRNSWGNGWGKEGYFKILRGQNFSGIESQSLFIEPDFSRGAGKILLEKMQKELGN
row,SMILES,% Inhibition @ 10 uM
1,Cc1cc(C)c(C)c(S(=O)(=O)Nc2ccc(C(=O)NCc3ccccn3)cc2)c1C,4.11%
2,CC(=O)c1cc2c(cc1NC(=O)CCC1CCCC1)OCO2,-8.36%
3,CSc1cccc(/N=C2/S/C(=C/c3ccccc3OCC(=O)N3CCOCC3)C(=O)N2C)c1,2.84%
4,Cc1ccc(CNC(=O)CC(c2cccs2)N2Cc3ccccc3C2=O)cc1 (stereo not drawn),-3.1%
5,O=C(COc1ccccc1Cl)N(Cc1cccc(Cl)c1)Cc1ccco1,1.25%
6,Cc1nn(Cc2ccc(C(=O)Nc3ccc(C(F)(F)F)cc3)o2)c(C)c1Br,2.44%
7,COc1cccc(C(Nc2cc(C)ccn2)c2ccc3ccc(C)nc3c2O)c1 (stereo not drawn),-6.94%
8,O=C1COc2c1c1c(c3oc(=O)ccc23)C(=O)CO1,4.47%
9,c1ccc2c(c1)OCC(c1csc3ncnc(N4CCCC4)c13)O2 (stereo not drawn),-5.29%
10,COc1ccccc1CN1CC(C)OC(C)C1 (stereo not drawn),-2.36%
11,COc1ccc(-c2csc(/C(C#N)=C\c3cccnc3)n2)cc1,-12%
12,COc1ccc2c(OC)c3ccoc3nc2c1OC,-0.687%
13,O=C(NCc1ccccc1)c1ccc(CS(=O)c2ccccc2)o1 (stereo not drawn),-6.89%
14,N#C/C(=C\c1ccc(Cl)cc1)c1nc(-c2ccccc2O)cs1,0.131%
15,COc1cc(C2C(C#N)=C(N)Oc3[nH]nc(C(F)(F)F)c32)ccc1OCCN1CCOCC1 (stereo not drawn),-2.56%
16,O=[N+]([O-])c1ccc(CN2CCN(c3cccc(C(F)(F)F)c3)CC2)cc1,-1.77%
17,C(=N\n1cnnc1)/c1ccccc1,3.06%
18,COc1cccc2c1CCc1c-2nc2ccccc2c1C(=O)O,3.68%
19,CN1CC2=C(OC(N)=C(C#N)C2c2ccc(F)cc2)/C(=C/c2ccc(F)cc2)C1 (stereo not drawn),-4.67%
20,COc1ccccc1N1CCN(C2CC(=O)N(c3ccc(C(C)=O)cc3)C2=O)CC1 (stereo not drawn),2.92%
21,CCOc1ccc(CCNS(=O)(=O)c2ccc3[nH]c4c(c3c2)CCCC4)cc1OCC,-1.95%
22,Cn1c(=O)c2c(ncn2Cc2ccc(C#N)cc2)n(C)c1=O,4.22%
23,O=C(CNC1=NC(=O)C(c2ccccc2)(c2ccccc2)N1)NCc1ccc(F)cc1,4.53%
24,COC(=O)c1nnn(-c2nonc2N)c1CN1CCC(C)CC1,14.6%
25,CC(C)=CCCC(C)CN1CCC(O)CC1 (stereo not drawn),-2.95%

row,SMILES,% Inhibition @ 10 uM
1,COc1nc(Nc2ccc(C)cc2)nc(OC)n1,-4.35%
2,CC(C)(C)n1ncc2c(=O)n(Cc3cccc4ccccc34)cnc21,-3.53%
3,COc1ccccc1CNC(=O)c1ccc2nc3[nH]c4ccccc4c3nc2c1,-2.14%
4,O=C(NCCc1cccs1)c1ccc(-n2c(-c3ccccc3)nc3cccnc32)cc1,-4.97%
5,Nc1c(-c2nc(-c3ccc4c(c3)OCO4)no2)nnn1-c1ccccc1F,-6.87%
6,CC1=C(C(=O)Nc2ccccc2)C(c2ccc(O)cc2)C(C#N)=C(SCc2ccccc2)N1 (stereo not drawn),-0.216%
7,CCCN1CCN(CCCNC(=O)Cn2nc(-c3ccccc3)ccc2=O)CC1,-2.99%
8,OCC1CCCN(Cc2cccc(F)c2)C1 (stereo not drawn),-4.58%
9,Cc1ccc2nc(Nc3ncc4c(n3)CC(C)(C)CC4=O)nc(C)c2c1,-2.46%
10,COC(=O)c1ccc(OCC(O)CNS(=O)(=O)c2ccccc2C(=O)O)cc1 (stereo not drawn),1.76%
11,Cc1ccc(NC(=O)C(CC(C)C)NC(=O)C2CCC(C)CC2)nc1 (stereo not drawn),-0.972%
12,CC(=O)N1CCC2(CC1)OC(=O)C(C)=C2C(=O)NCCCN1CCN(C)CC1,-1.31%
13,Cc1ccc(-c2nc(C(=O)NCCN3CCOCC3)c3n2CCCCC3)cc1,-1.98%
14,CSc1ccc(/C=N/S(=O)(=O)c2ccccc2)cc1,-1.06%
15,Cc1ccc(/C=C2\C(=O)NC(=O)N(C)C2=O)o1,5.31%
16,O=C(Nc1cc(-c2ccccc2)[nH]n1)C(F)(F)F,-5.17%
17,COC(=O)/C(C#N)=C/c1c(Oc2ccccc2Cl)nc2c(C)cccn2c1=O,8.21%
18,O=C(NCCN1CCOCC1)c1ccc(CN2CC(=O)N3CCCCC3C2=O)cc1 (stereo not drawn),-0.0871%
19,CCOC(=O)c1cnc(SCC(=O)N(CC)Cc2ccccc2)nc1N,-3.19%
20,COc1ccccc1NC(=O)C12CCC(C)(c3nc4ccccc4nc31)C2(C)C (stereo not drawn),-0.622%
21,CCOC(=O)c1sc(NC(=O)/C=C/c2ccc(OCC)cc2)c(C(=O)OCC)c1C,0.222%
22,O=C(Nc1ccn(-c2ccccc2)n1)c1ccccc1F,3.68%
23,COc1ccc(C2C(C#N)=C(N)N(c3ccccc3)C3=C2C(=O)CC(C)(C)C3)cc1CN1CCOCC1 (stereo not drawn),0.317%
24,COc1ccc(OC)c(NC(=O)C23CC4CC(C2)CC(n2cnc(Br)n2)(C4)C3)c1,-3.37%
25,O[C@H]1CC[C@H](NC2CCC(c3ccccc3)CC2)CC1 (stereo partly drawn),3.48%

row,SMILES,% Inhibition @ 10 uM
1,Cc1cc(C)nc(/N=C(\N)NC2CCCCCC2)n1,10%
2,CC(C)=C1C2C=CC1C(C(=O)Nc1cc(C)ccc1C)C2C(=O)O (stereo not drawn),5.24%
3,CC(=O)c1ccc(N2CCN(Cc3ccc(C(C)C)cc3)CC2)cc1,-6.44%
4,COc1ccccc1/C=C/C=C1\N=C(c2ccccc2OC)OC1=O,8.21%
5,CC1CCC/C=C/C2CC(O)CC2C(O)/C=C/C(=O)O1 (stereo not drawn),0.275%
6,CC[C@H](NC(=O)[C@H](Cc1nccs1)NC(=O)c1ccc(-c2ccccc2Cl)nc1)C(=O)c1nc2ccccc2o1,2.87%
7,CCCCCC12CCC(O)(CC1)CC2O (stereo not drawn),4.6%
8,CNC(=O)C1CC(=O)N(CCc2ccc(OC)c(OC)c2)/C(=N/c2cccc(C(F)(F)F)c2)S1 (stereo not drawn),-9.75%
9,CC(C)c1ccc(NS(=O)(=O)c2ccc(Cl)nc2)cc1,3.24%
10,O=C(CCCCCn1c(=O)c2sccc2n(Cc2cccnc2)c1=O)NCc1ccccc1Cl,-4.43%
11,CC(=O)N1CCN(C2CCCCCC2)CC1,1.57%
12,COc1ccccc1/C=C/c1nc(C#N)c(N2CCCC2)o1,-0.808%
13,Cn1c(NCc2ccccn2)nc2ccccc21,-0.872%
14,O=C(NCCc1c[nH]c2ccccc12)C1CCN(c2ncnc3c2sc2cccc(F)c23)CC1,2.65%
15,O=C(Nc1ccncc1)c1ccccc1O,13.1%
16,N#Cc1ccc(Oc2ccc(C(=O)Nc3ccccc3)cc2)cc1,0.0345%
17,O=C(/C=C/c1ccccc1)NCc1ccc2c(c1)OCO2,-1.37%
18,COc1ccc(C2C3=C(O)CC(C)(C)CC3=Nc3ccccc3N2C(=O)C(F)(F)F)cc1OC (stereo not drawn),-1.44%
19,CC(=O)c1sc(Nc2ccc(S(=O)(=O)Nc3onc(C)c3C)cc2)nc1C,-5.3%
20,O=C(Nc1cnc2ccccc2c1)c1ccncc1,-0.615%
21,COc1ccc(C(C(=O)O)N2Cc3ccccc3C2=O)cc1 (stereo not drawn),0.708%
22,O=C(CCN1CCN(C2C3CC4CC(C3)CC2C4)CC1)N1c2ccccc2Sc2ccc(C(F)(F)F)cc21 (stereo not drawn),-3.14%
23,O=C(NCC1CCCO1)C1CCN(C(=O)c2ccc(-n3ccc4ccccc43)s2)CC1 (stereo not drawn),0.0489%
24,Cn1c(C2CCCO2)nc2ccccc21 (stereo not drawn),6.78%
25,CCOc1ccc(/C=C2\SC(Nc3ccc(F)cc3)=NC2=O)cc1,0.993%

row,SMILES,% Inhibition @ 10 uM
1,Cc1ccc(Cl)cc1-n1ncc2c(NCc3cccnc3)ncnc21,3.52%
2,O=C(CSc1ccc(Cl)cc1)Nc1ncc2c(n1)CC(c1cccs1)CC2=O (stereo not drawn),0.83%
3,Cc1ccc(N2C(=O)CC(NCCc3ccccc3)C2=O)cc1 (stereo not drawn),1.78%
4,COc1ccc(C2c3c(-c4ccccc4O)n[nH]c3C(=O)N2CCO)cc1OC (stereo not drawn),0.366%
5,COc1ccc(CN2CCCC(O)C2)cc1C (stereo not drawn),-6.36%
6,COc1ccccc1C(=O)Nc1cc(Cl)ccc1Cl,-1.98%
7,COc1cccc(C(=O)N2CCN(C(=O)c3cccnc3)CC2)c1,-9.87%
8,Cc1ccccc1NC(=O)c1c(-c2ccccc2Cl)noc1C,7.96%
9,CCCCOc1cccc(C2c3c(-c4c(C)cc(C)cc4O)n[nH]c3C(=O)N2CCO)c1 (stereo not drawn),4.83%
10,O=[N+]([O-])c1ccccc1CN1CCSCC1,-2.03%
11,CC1CCCC(C(=O)O)N1C(=O)CCSC(=O)c1ccccc1 (stereo not drawn),-7.09%
12,C=CCn1c2ccccc2n2cc(C)nc12,1.8%
13,Oc1c2c(nc3c(-c4ccc(Cl)cc4)c(Cc4ccccc4)nn13)CCCC2,4.88%
14,Cc1cc(C)n(-c2nnc(C)n2/N=C/c2ccc(OC(C)C)cc2)n1,-2.98%
15,CCC/N=c1\c(NC(=O)c2ccc(C(C)(C)C)cc2)c(O)oc2ccccc12,-0.441%
16,NC(=O)c1cc(S(=O)(=O)NCCc2ccco2)cs1,0.879%
17,Cc1nnc(N2CCC(C(=O)N3CCCCCC3)CC2)c2nn(-c3ccc(Cl)cc3)c(C)c12,9.05%
18,Cc1nn(-c2ccccc2)c2c1N(CC(=O)NCC1CCCO1)C(=O)CS2 (stereo not drawn),5.94%
19,COc1ccc(C2CC(=O)C3=C(C2)NC(=O)CC3c2ccc(F)cc2)cc1OC (stereo not drawn),0.8%
20,CC(C)CCNC(=O)Cn1c(=O)c2cccn2c2cccnc21,-1.81%
21,CCc1ccc(OCC(=O)N(Cc2ccccc2F)C2CCS(=O)(=O)C2)cc1 (stereo not drawn),0.366%
22,NC(=O)CC[C@H](NC(=O)OCc1ccccc1)C(=O)N[C@H](CCc1ccccc1)C(=O)CO,-3.97%
23,Cc1cc(C)n2c(SCc3nnnn3-c3ccccc3)nnc2n1,-2.91%
24,COc1ccc(CNc2nc(-c3ccc(Cl)cc3)nn2S(=O)(=O)c2ccccc2)cc1,0.628%
